From the supplement of paper PMC4604168 (melanoma cell lines)
The list shows a part of the results. Many values rest on one well or one pass, so single values are uncertain.

Each compound was assayed on A375 (assay: cell count relative to DMSO control; melanoma cells; higher = more viable cells). Settings: library dose: standard library concentration; 72 h.
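Also: cells treated in 1,536-well plates, then fixed and DAPI-stained, with nuclei counted from automated high-throughput microscope images.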

| SMILES | cell count [%] |
| --- | --- |
| CC[C@]1(O)C[C@H]2CN(CCc3c([nH]c4ccccc34)[C@@](C(=O)OC)(c3cc4c(cc3OC)N(C=O)[C@H]3[C@@](O)(C(=O)OC)[C@H](OC(C)=O)[C@]5(CC)C=CCN6CC[C@]43[C@@H]65)C2)C1 [vincristine] + COc1ccc(C2=N[C@@H](c3ccc(Cl)cc3)[C@@H](c3ccc(Cl)cc3)N2C(=O)N2CCNC(=O)C2)c(OC(C)C)c1 [Nutlin-3] (first compound 0.0005 µM, partner dose 0.5 µM) | 78.7 |
| Cc1cc(Nc2cc(N3CCN(C)CC3)nc(Sc3ccc(NC(=O)C4CC4)cc3)n2)n[nH]1 [Tozasertib] + COc1ccc(Cl)c(Nc2nc3ccccc3nc2NS(=O)(=O)c2cccc(NC(=O)C(C)(C)N)c2)c1 [XL147] (first compound 0.03 µM, partner dose 4 µM) | 75.5 |
| N#CC[C@H](C1CCCC1)n1cc(-c2ncnc3[nH]ccc23)cn1 [ruxolitinib] + CS(=O)(=O)c1ccc(C(=O)Nc2ccc(Cl)c(-c3ccccn3)c2)c(Cl)c1 [vismodegib] (first compound 5 µM, partner dose 5 µM) | 139 |
| Cc1cc(Nc2cc(N3CCN(C)CC3)nc(Sc3ccc(NC(=O)C4CC4)cc3)n2)n[nH]1 [Tozasertib] + Nc1ncn([C@H]2C[C@H](O)[C@@H](CO)O2)c(=O)n1 [decitabine] (first compound 0.03 µM, partner dose 0.5 µM) | 90.2 |
| CC[C@]1(O)C[C@H]2CN(CCc3c([nH]c4ccccc34)[C@@](C(=O)OC)(c3cc4c(cc3OC)N(C=O)[C@H]3[C@@](O)(C(=O)OC)[C@H](OC(C)=O)[C@]5(CC)C=CCN6CC[C@]43[C@@H]65)C2)C1 [vincristine] + O=c1[nH]nc(Sc2ncc([N+](=O)[O-])s2)n1-c1ccc2c(c1)OCCO2 [BI78D3] (first compound 0.0005 µM, partner dose 1 µM) | 81.3 |
